Experimental data published in patent publication US8247220B2, “Optical indicator for detecting bacterial pathogens” (Kimberly-Clark Worldwide, Inc., priority 2008, dated 2012).

System: Adenovirus Type 2 (ATCC # VR-846), Adenovirus Type 5 (ATCC # VR-5)
Assay: Reichardt's dye-treated samples with upper respiratory viruses
Conditions: compared with Salmonella bacterial control at a similar concentration

[O-]c1c(-c2ccccc2)cc(-[n+]2c(-c3ccccc3)cc(-c3ccccc3)cc2-c2ccccc2)cc1-c1ccccc1 [Reichardt's dye, 4-(2,4,6-triphenylpyridinium-1-yl)-2,6-diphenylphenolate]
de-colorization of the dye: almost no ability to de-colorize the dye
